Measurements published in the supplement of paper PMC11417369.
This is one part of the list.

Tested on: PF3D7_0420300 AP2 domain 1 (GST-tagged)
Assay: gcPBM binding intensity (ln(normalized median fluorescence intensity)); higher = stronger DNA binding
Procedure, shortened: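 In this array assay, P. falciparum DNA-binding domains with a GST tag, expressed in E. coli, were applied for 1 h to primer-extended double-stranded 36-bp intergenic genomic probes and negative controls on an Agilent 4 × 180k array. Bound protein was visualised with Alexa488 anti-GST antibody at 488 nm. Binding intensity is the highest Masliner-normalised natural-log median intensity across replicate spots of either probe orientation.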

Sequence	gcPBM binding intensity (ln)
AATATAGGAATATGCACACATATATACATACATACA [CACACA_site1521]	9.55
TATGAAAAAAAAAAAAAAAAAAAAAAAAAAAAAAAA [XGTACX_negctrl_site587]	8.53
AAAAAAATAAAATATATATATATATATATATATATA [GTGCAC_negctrl_site706]	8.9
TATATATGGATATATACACACAACGGTTATAAATAT [CACACA_site6655]	9.64
TTTTTGTAACCGATTCTGCACTGAGAAGCACATATA	9.08
TTATTTACAAAACAAATCAAAATATCCAAAAGAATA [CACACA_negctrl_site1789]	9.04
GAAATTACTTTATAAACACACATTTATTTTATTTTA [CACACA_site7007]	9.28
ATATTATACGCATATGTGCGCATACATTTTTTTGCA [GTGCAC_site9540]	9.24
TACACATACAGACATACACACATACCCATATACTCA [CACACA_site5037]	9.81
GGCATATATATATGCACACATACATATATACATGTG [CACACA_site3859]	9.44
ATGTTATTAATAATTGCACACATTTTTTTTTTTTTT [CACACA_site3920]	9.6
TCATATTTATATAAATGTACTTAATTGGTTTCTTTA [XGTACX_site7848]	9.24
AGATTGTAAGTAAACACACACACATATATATGTATA [CACACA_site675]	9.84
TTTATACAAATATGTACACACTAAATATATATTATG [CACACA_site4413]	9.4
AAAAAAAAAAAAAACACACAGAAATATATATATATT [CACACA_site832]	9.65
AAAGGAAAAGTTGACTGTACATAAGTAAAAAATAAT [XGTACX_site788]	9.67
ATTCATTCCATACTTTAACACACAAATATATTTAAT [CACACA_site7930]	9.57
TATATATATATATGTGGTACATAAAATTATTATTTT [XGTACX_site4554]	9.24
ATAAAATTATCTACATGTACTCATATATATTTGTTT [XGTACX_site5911]	9.49
AGAGAGAAAGTTATAACATGCAACAATTTTTAGAAG [TGCATGCA_site1]	9.19
CTTTAAACCCTGAACACACACAAATACACCCAAAAA [CACACA_site4297]	9.74
TTTGTATTAAAAAAAAAAAAAAAAAAAATGAATAAA [TGCATGCA_negctrl_site292]	8.88
ATAACGGAAAAAAAAAGTACATGATATAAACATGAA [XGTACX_site8428]	9.35

Sequence	gcPBM binding intensity (ln)
TTTTTTTTTTTTTTTTTTTTTTTTCATTTGATATTA [TGCATGCA_negctrl_site112]	8.45
TTATTTATTCTATGTGCATGTTATTTTTTTTTTTCG [TGCATGCA_site262]	9.52
AAAAATAAGATATATACACACATATAAATATAAATA [CACACA_site7396]	9.75
AAGAAAAATACTACGTGTACCAAACTTCCTACCAAC [XGTACX_site1426]	9.52
TATATATATATATTATGTACATATAAATATATTTTT [XGTACX_site1509]	9.07
AATATATATATGTGTACACATCCAAAATAGGCATAC [CACACA_site5705]	9.64
TGTAAATATAAAAGATAATGATAAAAGGGACATTTT [CACACA_negctrl_site661]	9.47
ATATATATATAAATATGTACATATTTATATATGAAT [XGTACX_site3220]	9.32
ATCTATATTATAATAACACACATATATTATAGTATA [CACACA_site6330]	9.45
TTTTTATGTGTATATTATTACATTTACATCTTTAAC [CACACA_negctrl_site1676]	9.35
ACAAGACAACAAGGAAGTACTCATAAATATATTTGG [XGTACX_site1423]	9.4
ATGTAGAATTGTAAATGTACATGAAACACATATTCA [XGTACX_site3436]	9.28
CTCACATATATATATAGTACAATTTTTTTTTTTTTT [XGTACX_site5999]	9.15
AGTAAATAATTATATACATGCATTTACTAATATTTA [TGCATGCA_site952]	9.17
ATATGACGTAGTGGTGTACACACATGGTACCTTTAT [CACACA_site8436]	9.66
CATATACATACACATACACACATACACCCATACACA [CACACA_site8514]	9.77
TGTAAAAAATTTAACACACACATATATAAATATGTA [CACACA_site7261]	9.47
AATATATATTTATGTACACACTCCAATACAGATACA [CACACA_site5481]	9.57
ATACTATTATATATATGTACATATATATGATGCTCT [XGTACX_site1771]	9.39
AAGGAGCCTATGAACACACACATGTACATATATTAA [CACACA_site4084]	9.59
TTCGTTCTTTTATGCACACTCAACATATAAATTAAA [CACACA_site1209]	9.54
TTATAATATATATGTAGTACTGTTTTTTTCTATTTT [XGTACX_site7749]	9.52
TATTATTTTAAAAATGCATGTTCATATGAAATAATA [TGCATGCA_site969]	9.04

Sequence	gcPBM binding intensity (ln)
TGTACAAATATGTACACACACACATATATATATATA [CACACA_site584]	9.85
TATTCACATACAGAAACACACACATATATATAAATT [CACACA_site9232]	9.78
TTTGTGTGTGCGTGTGCATGTTGTTTTTTTCTATAA [TGCATGCA_site17]	10.1
AATATAATAACTTATTGTACGAAATTATATCACCTT [XGTACX_site7883]	9.32
TAATTAAGCATAAATATAATTTTATATTTTATTTCC [XGTACX_negctrl_site321]	8.89
TGCAGTCTGGAGAAAAGTACATAGTATCTGGTAGCT [XGTACX_site2547]	9.23
TAACATAGCAATGTTTCACACACAAGAAAAAATACA [CACACA_site8747]	9.73
ATATATGTATATATTTGTACATATAATATTTTTTAA [XGTACX_site6345]	9.04
ATTTGTAATTTATTCAAACACACAATTTGGACCTTT [CACACA_site1062]	9.21
TATATTATAATTTGAAGTACATTTTAAATTAACTAA [XGTACX_site1013]	8.88
ATATAATAGTATATATGTACATATATTTAAATACTA [XGTACX_site1135]	9.27
AAAAAATAAAAAAAAACACACACATACAAGCATATA [CACACA_site8451]	10
AGAGAGAGAAATACAAGTACATGTGAAACCAATCTA [XGTACX_site2767]	9.31
AAAAAAAAAAAAATTGCACACAAAAAAAAAAAAAAA [CACACA_site8644]	9.24
TTCAACATAATATGCACACAAAAATTATGGAACGAA [CACACA_site2111]	9.67
AAAAAAAACAAATACACACGCACACCGAAAAAAAAA [CACACA_site803]	10
CTTTATCTTCTCACGAAGATTGAATAAGGTATTCTT [XGTACX_negctrl_site307]	9.03
CAGACAATAAAGAAGTGTACACATATATCAATAAAA [XGTACX_site4515]	9.53
AAAAAAAAATACCTACGTACATATATATATTATATA [XGTACX_site3983]	9.24
AAAAAAAAAAAACACACACACACACCCACAAAATAT [CACACA_site1447]	10.2
TTAATGCACTTTATTACACACACTAGTTCATTACCT [CACACA_site2294]	9.85
AAAAAAAAATAAAATAAAATAAAATAAAATAATATA [CACACA_negctrl_site1798]	9.39
ACATATGTATAATAATGTACGCATTAAATATAATTA [XGTACX_site7851]	9.33

Sequence	gcPBM binding intensity (ln)
AAACAAATGTACAAAGTGCATATTTTTTTCAAAAGG	9.19
ATAATATATATTAATACACACACACCGATATATATA [CACACA_site9261]	10.1
GACCAATACTTTAAAAGTACAAACCTTATTTTATTT [XGTACX_site2718]	9.38
TATTTTATAAATACAAGTAAAATTAAATATATAATA [XGTACX_negctrl_site221]	8.93
AGGAGGATATTACACAGTACCCAGGAAATCTACGGA [XGTACX_site4878]	9.28
TTGTACTACAATCCTTTATTTATTTAAACCTGTATG [CACACA_negctrl_site428]	9.14
TATATAAATAGACACACACACACATATAAATAAATA [CACACA_site7855]	10.2
TTTCAATGCATAAAAGTGCGCAATAATTTAAAGATC	9.23
AAATAAATATATATATGTACATACAAATACACGGTA [XGTACX_site8510]	9.65
AAGAAAAATGTCATATGATATCATATATTTTATAAT [TGCATGCA_negctrl_site296]	9.04
ATTTTCCCTTGTTTTACACACGTGCTGATATGAGAT [CACACA_site2164]	9.73
AAAAAAAAAAAAAAATGTACATTATACACATTATAT [XGTACX_site6824]	9.28
TAGCCAAAATATAATTTACACACTTATTAAATAATT [CACACA_site7963]	9.22
AATTATGCATTTGTCACACATATATATTACACTTGC [CACACA_site5324]	9.47
ATATAATATTGAGTTTGTACATATATATATGAAGAT [XGTACX_site4444]	9.34
CGATTTTTTAAGTTTGTGCACTTAAAAACTATAACA	8.88
CCATTTGATAATAATGCACACCACATATATTTATAT [CACACA_site9002]	9.46
AAAAGGAATTATAGGAAATAAATATATACAAATATA [TGCATGCA_negctrl_site528]	9.18
TATATGTCAATATCTACACACATATAGGTAATTATT [CACACA_site7475]	9.55
TATACTATACAACACATACACACAAAAAAAAAAAAA [CACACA_site537]	9.74
